# ± gives the standard deviation of the averaged measurements. The list shows a part of the results.
# System: PfAP2-LT AP2 domain (GST-tagged)
# Assay: gcPBM binding intensity (ln(normalized median fluorescence intensity)); higher = stronger DNA binding
# How it was run: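 Binding intensity is defined as the maximum Masliner-normalised natural-log median intensity across replicate spots for either probe orientation. It was measured on an Agilent 4 × 180k array of primer-extended double-stranded 36-bp intergenic genomic probes and negative controls, to which GST-tagged P. falciparum DNA-binding domains made in E. coli were applied for 1 h in 1× PBS with 1% milk, 0.2 mg/ml BSA, 0.5% salmon testes DNA and 0.03% Triton X-100. Detection was by Alexa488 anti-GST antibody and scanning at 488 nm.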
row,Sequence,gcPBM binding intensity (ln)
1,CTTCCTTCTAAATGCACACGGAAAGTATAAATGTAT [CACACA_site2501],8.88 ± 0.4
2,AGAGATATAAGAAAAGCACACACACCCAAAAAAAAA [CACACA_site8917],9.96 ± 0.29
3,TATATACAAAAAATATGTACATATATATATATATAT [XGTACX_site3497],9.69 ± 0.31
4,AAAAAATAAATAAATACACACACACTAATATATATA [CACACA_site8488],9.72 ± 0.24
5,ATTATTTATATTATGGTGCATAATTTTGGGTTTCTT,9.02 ± 0.48
6,TATTTGTTTTTATATAGTACATAAATATATATATAT [XGTACX_site7834],8.63 ± 0.4
7,AAAATAAATATGAACACACACATTTATGCCTTTAAA [CACACA_site1271],9.14 ± 0.37
8,TGAAAAGTAAAATACACACACATAATCTAATTTATA [CACACA_site7024],9.29 ± 0.3
9,GGTTAACATAAATATATACACACCAATGATGGCATT [CACACA_site1568],9.04 ± 0.32
10,CCTCTTAATATGTGCACACTAAATTATAACATAATT [CACACA_site3259],9.05 ± 0.38
11,TGGATTTTGTATTAATGTACATATATATATATATAT [XGTACX_site4442],9.2 ± 0.21
12,TATATTATTTATTAGACACACATTATTAATATATTT [CACACA_site1078],8.74 ± 0.45
13,AACAACATTTTGTAATGTACATATTTACTTATATTC [XGTACX_site7251],8.76 ± 0.43
14,CAGATAGACTTATATGCATGCATTCACATACCAACA [TGCATGCA_site163],8.98 ± 0.35
15,AAATAATTAGAAATAGTGCACATAATTAAGGGATAC,9.28 ± 0.45
16,TAGAAATATATAAATTGTACATGTTTGTATAATATA [XGTACX_site2097],8.64 ± 0.46
17,AAAAAAGAAGAGCACACACACATATATAAATATAAA [CACACA_site631],9.69 ± 0.33
18,TTATAATAAAAGGCTTTACAATTATTAAACAAATAA [GTGCAC_negctrl_site480],8.23 ± 0.59
19,GCCATTGTACCATCCACACACATATATATCTGTATA [CACACA_site5490],9.63 ± 0.39

row,Sequence,gcPBM binding intensity (ln)
1,TGGTATTAAGGAGAGGGTACAAAAAAAAAAAAAAAA [XGTACX_site1668],8.42 ± 0.47
2,AAAAAAAAAAAAAAAAAAAAATATATATATATATAT [GTGCAC_negctrl_site426],9.67 ± 0.085
3,AAAAGTATAATAAATTGTACTAACAAATATTTATGT [XGTACX_site7721],8.7 ± 0.46
4,TAAAATTTTGTTTGTTGTACTTATTTTCGTGTCAAC [XGTACX_site8277],8.73 ± 0.49
5,AAAGATGAATTTTTTACACACACCATTTTATAATAT [CACACA_site3676],9.07 ± 0.25
6,AATGTAAAACCTCCTACACACACCAATTAACTATTC [CACACA_site2112],9.55 ± 0.2
7,TACTTATCGTTAAATTGTACTAAAAAATATTTTTCT [XGTACX_site4665],8.53 ± 0.52
8,AAAAAAAACGGACACACACACATACAAAATATATAT [CACACA_site4910],9.99 ± 0.28
9,AGGGAATATTTTTATGCATGTGCTTACACATTACAA [TGCATGCA_site830],8.84 ± 0.39
10,TTCTAATATTTACATAATATATAGAAATATAAAGGT [XGTACX_negctrl_site504],8.76 ± 0.3
11,AAATATAAACTCAGCACACAAACATATATATGTCAT [CACACA_site4004],9.15 ± 0.4
12,TTTTTTTTTTTTTCTCGTACAAAATAATACCTTTTT [XGTACX_site3867],8.53 ± 0.45
13,ATGGTATAAAAAAATACACACTTATATATATTCTTA [CACACA_site4427],8.68 ± 0.46
14,GTAGACATTATAATGGTGCAAAAAAATTAACAAAAA [GTGCAC_site9891],8.98 ± 0.64
15,AAGTATGCGTTATATACACACATACATTTATATATC [CACACA_site6207],9.04 ± 0.32
16,TCAGAGTGAAGTTATACACACATGGTTTTTTTTTTT [CACACA_site2116],8.87 ± 0.49
17,AGAGAGAAAGCTATAACATGCAACAATTTTTAGAAA [TGCATGCA_site95],8.78 ± 0.59
18,AGGAGGATATTACACAGTACCCAGTAACTCTACGGA [XGTACX_site1998],8.82 ± 0.51
19,GTAATATATTTTTATGGTACACGAACTAGCCAAAAA [XGTACX_site6307],8.75 ± 0.38

row,Sequence,gcPBM binding intensity (ln)
1,TAATATATTTATAAGTGTACACATTATATAAATCCC [XGTACX_site8875],8.73 ± 0.33
2,CCGCATTTTACAGACACACACAATTTATATTACGGT [CACACA_site6974],9.26 ± 0.33
3,AGTAATAACTATATATGTACATATATATATTATTAG [XGTACX_site1113],8.79 ± 0.4
4,TTTTTTTTTTTAAATACATGCATGTCCTATTTAAAT [TGCATGCA_site494],8.9 ± 0.61
5,TTTTTTTGATAAAAGGTGCTACAAGATGAATACATA,8.38 ± 0.42
6,GTTGTATAAAATAATACATGCATGTCCTACATATAT [TGCATGCA_site162],9.35 ± 0.45
7,ATAAATAAAAAAAAAAAAAAAAAAAAAAAAAAAATA [CACACA_negctrl_site1064],8.46 ± 0.61
8,ATAATATAAATAATTATACACACTTAATATATATAT [CACACA_site2782],8.76 ± 0.45
9,GTATGTATGTATGTATGTACGTATTTATTTATTTAA [XGTACX_site726],9.05 ± 0.32
10,AAGAAAAATAATTAGGGTGAAAATATATAGAGTAAA [TGCATGCA_negctrl_site590],8.7 ± 0.54
11,ACACATATATATATATATATATATATATATATATAT [CACACA_negctrl_site1766],9.935 ± 0.035
12,CAATTCTTAAGTTCTTGTACGAAAAACGACAATTTA [XGTACX_site3890],8.38 ± 0.44
13,TATTATATAAAATATTTTATTATATCATCTTCTCTA [XGTACX_negctrl_site319],8.43 ± 0.59
14,GGTAATAATATGCATAGTACATAATATATATATATA [XGTACX_site6793],9.14 ± 0.38
15,ATCATATTTTTATGTGTGCACTTTTTTTTTTTTTTT [GTGCAC_site9555],9.27 ± 0.35
16,CTCTTATACATATTCCTGCACTTATTTTTAAAAACA [GTGCAC_site9620],8.73 ± 0.39
17,AAAAATGGTGTTAACACACACATATAAATAAATATA [CACACA_site6412],9 ± 0.35
18,TAAATGTGAAATTTTATATTTTATATAATATACAAT [CACACA_negctrl_site76],8.35 ± 0.38
19,AAGGATCACCCACAAACACACATATATATATATATA [CACACA_site559],10.2 ± 0.28

# — the supplement of paper PMC11417369
